# In PubChem BioAssay AID602233 (National Center for Advancing Translational Sciences (NCATS), 2012):
# Among all 380,000 compounds or so, about 170 (0.045%) were called active. This list was built around the results that the source calls inconclusive (neither active nor inactive); the mix of calls is not that of the screen. Calls follow the shape of the dose curve; as a rule, active = well fitted inhibition curve with a large enough effect; inconclusive = small, poorly fitted or top-dose-only effect; inactive = no such curve, though single readings can be large or run the other way. Potencies of inconclusive entries are left out as doubtful fits.
# Biological target: Phosphoglycerate kinase, glycosomal (Trypanosoma brucei brucei) (UniProt P07378)
# Test: qHTS Assay to Find Inhibitors of Phosphoglycerate Kinase; also: nearly all actives have a fitted effect of over 60% in size
# Conditions: PGK/GAPDH coupled, Kinase-Glo luminescence, 60 min; series mostly up to 57.5 µM
# Outline: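 Recombinant glycosomal PGK reaction used 1,3-bisphosphoglycerate generated in-well by GAPDH (100nM final) in 100mM TEA pH 7.6, 5mM MgCl2, 0.01% Tween-20. After 60 minutes at room temperature, ATP was read by Kinase-Glo Plus luminescence end-point.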
# Potency is read from the fitted curve at half-maximal effect; tags tell the direction and shape of the fitted curve.
row,SMILES,Potency
1,Cc1cccc(NC(=O)CNC(=O)c2cccc(-n3cccc3)c2)c1C,"inconclusive [inhibitor, partial curve, poor fit]"
2,COc1ccccc1NC(=O)c1ccccc1Nc1ccccc1,inactive
3,COc1cc(/C=C/c2sc3ccccc3[n+]2CCCS(=O)(=O)[O-])ccc1O,"inconclusive [inhibitor, partial curve, poor fit]"
4,N/C(=N\OC(=O)c1cccc([N+](=O)[O-])c1)c1ccccn1,inactive
5,O=C(N/N=C/c1cc(Cl)cc([N+](=O)[O-])c1O)NC12CC3CC(CC(C3)C1)C2,active: 11.2 µM
6,CC(C)C1Nc2c(O)cc(Cl)c([N+](=O)[O-])c2C2C=CCC21 (stereo not given),inactive
7,O=c1c(Cl)c(N2CCCCC2)cnn1-c1nc2ccccc2[nH]1,"inconclusive [inhibitor, single point]"
8,CC1=NNC(=O)/C1=C\c1cn(-c2ccccc2)nc1-c1ccccc1,inactive
9,Cc1nc(N)nc(N)c1-c1ccc(Cl)c(Cl)c1,inactive
10,Cc1cccc(NC(=S)N(C)Cc2cn(C)c3ccccc23)c1,"inconclusive [inhibitor, partial curve, poor fit]"
11,CCN(CC)c1ccc2c(-c3ccc(S(=O)(=O)O)cc3S(=O)(=O)[O-])c3ccc(=[N+](CC)CC)cc-3oc2c1,"inconclusive [inhibitor, partial curve, poor fit]"
12,CCc1ccc2c(c1)cc(CN(C(=S)Nc1ccc(Cl)cc1)C1CC1)c1nnnn12,"inconclusive [inhibitor, single point]"
13,Fc1cccc(/C=N/Nc2nccnc2Cl)c1,"inconclusive [inhibitor, partial curve]"
14,O=C(N/N=C/c1cccs1)c1n[nH]c2c1CCCC2,"inconclusive [inhibitor, partial curve, poor fit]"
15,O=C(O)c1cc(N2N=C(C(F)(F)F)/C(=C/C=C/c3ccco3)C2=O)ccc1Cl,"inconclusive [inhibitor, full curve, poor fit]"
16,N#C/C(=C\c1ccccc1OCc1ccc(C(=O)O)cc1)C(=O)Nc1ccc(O)cc1,inactive
17,COc1ccc(NC(=O)CN(C)C(=O)c2cc3c(s2)CCC3)cc1,"inconclusive [inhibitor, partial curve, poor fit]"
18,Cc1ccc(S(=O)(=O)Nc2cc(C)cn(Cc3ccc(F)cc3)c2=O)cc1,inactive
19,COc1ccccc1Nc1nc(NCCO)nc(N)c1[N+](=O)[O-],inactive
20,Cc1c(Cl)cccc1NC(=S)N=Nc1c(O)n(CN2CCOCC2)c2ccccc12,inactive
